The other results are listed elsewhere or left out.

For this assay, the system named is S. aureus RN4220. The assay can be described thus: growth inhibition call (relative growth <= 0.2). The note with it: 50 µM.
Turning to `COc1ccc(C#Cc2ccc3c(c2)[C@]2(C(=O)N3)[C@H](C(=O)N3CCN(c4ncccn4)CC3)[C@H]3C(=O)O[C@H](c4ccccc4)[C@H](c4ccccc4)N3[C@@H]2c2ccccc2OCCO)cc1`, the growth inhibition call is “inactive”.
The same measure for `NCCCN.O=C(O)C(O)C(O)C(=O)O` (stereo not drawn): “inactive”; for `C[C@@H]1CN([C@H](C)CO)C(=O)c2cccc(NC(=O)Nc3ccc(C(F)(F)F)cc3)c2O[C@H]1CN(C)Cc1ccncc1`: “inactive”; for `C[C@@H]1CN([C@H](C)CO)C(=O)c2cc(NC(=O)Nc3ccc4c(c3)OCO4)ccc2O[C@@H](C)CCCCO[C@@H]1CN(C)Cc1ccc(C(=O)O)cc1`: “inactive”.
As for `CN(C)CCCNC(=O)C[C@H]1CC[C@@H]2[C@@H](COc3ccc(NS(C)(=O)=O)cc3C(=O)N2C)O1`, the entry is “inactive”.
In the case of `C[C@H]1CN([C@@H](C)CO)C(=O)Cc2cc(NS(=O)(=O)c3cccs3)ccc2O[C@@H]1CN(C)S(=O)(=O)c1ccccc1`, the growth inhibition call was “inactive”.
Consider `CN(C)C(=O)c1cccc(-c2cccc(-c3nc(C(=O)NC4CCCCC4)cc4c3[C@H](CCO)N([S@@](=O)C(C)(C)C)C4)c2)c1`, for which the growth inhibition call is “inactive”.
Consider `C[C@@H]1CCCCO[C@H](CN(C)C(=O)Nc2ccc(F)cc2)[C@@H](C)CN([C@H](C)CO)C(=O)c2cc(NS(=O)(=O)c3cccs3)ccc2O1`, for which the growth inhibition call was “inactive”.
Turning to `COc1ccc2c3c(n(c2c1)C)[C@@H](CO)N(C[C@]13CCN(CC1)C(=O)CN(C)C)C(=O)C1CCCCC1`, the growth inhibition call was “inactive”.
The same measure for `O=C(C[C@H]1CC[C@H]2[C@@H](COC[C@H](O)CN2C(=O)c2cnccn2)O1)N1CCN(c2ccccc2)CC1`: “inactive”.
The same measure for `C[C@H](CO)N1C[C@H](C)[C@H](CN(C)C(=O)c2ccncc2)Oc2ncc(C#CC3CCCCC3)cc2C1=O`: “inactive”; for `Cc1noc(C)c1NC(=O)N(C)C[C@@H]1OCCCC[C@H](C)Oc2ccc(NC(=O)Cc3ccccc3)cc2C(=O)N([C@H](C)CO)C[C@H]1C`: “inactive”; for `COc1cccc2c1C(=O)c1c(O)c3c(c(O)c1C2=O)CC(O)(C(C)=O)CC3OC1CC(N)C(O)C(C)O1.Cl` (stereo not drawn): “inactive”.
The same measure for `O/N=C/c1ccccc1C(F)(F)F`: “inactive”; for `Cn1c2c(c(=S)[nH]c1=O)CCC2`: “inactive”.
For the compound `O=C(C[C@H]1CC[C@H]2[C@@H](COC[C@H](O)CN2S(=O)(=O)c2ccccc2)O1)N[C@@H]1CCN(Cc2ccccc2)C1`, the growth inhibition call is “inactive”.
As to `C[C@H]1CN([C@@H](C)CO)C(=O)c2cc(NC(=O)C3CC3)ccc2O[C@@H]1CN(C)C(=O)Nc1ccc2c(c1)OCO2`, the growth inhibition call is “inactive”.
For the compound `C[C@@H]1CN([C@@H](C)CO)C(=O)c2cc(C#CC3(O)CCCC3)cnc2O[C@@H]1CN(C)C(=O)C1CCOCC1`, the growth inhibition call is “inactive”.
Regarding `Cc1ccc(S(=O)(=O)N(C)C[C@@H]2Oc3ncc(Br)cc3C(=O)N([C@H](C)CO)C[C@H]2C)cc1`, the growth inhibition call was “inactive”.
Turning to `C[C@@H]1CCCCO[C@H](CN(C)Cc2ccc3c(c2)OCO3)[C@H](C)CN([C@@H](C)CO)C(=O)c2cc(NS(=O)(=O)c3ccc(Cl)cc3)ccc2O1`, the growth inhibition call was “inactive”.
As for `CC(C)=CCCC(C)=CCO`, the entry is “inactive”; as for `C[C@H](CO)N1C[C@H](C)[C@H](CN(C)Cc2ccc(C(=O)O)cc2)OCCCC[C@H](C)Oc2ccc(NS(=O)(=O)c3ccc(Cl)cc3)cc2C1=O`, “inactive”.
As for `CC(C)NC(=O)N(C)C[C@@H]1OCCCC[C@H](C)Oc2ccc(NC(=O)C3CCCCC3)cc2C(=O)N([C@H](C)CO)C[C@H]1C`, the entry is “inactive”; as for `COc1ccc2c3c([nH]c2c1)[C@@H](CO)N(C[C@]13CN(CC2CCOCC2)C1)C(=O)Nc1c(noc1C)C`, “inactive”; as for `Cc1noc(C)c1NC(=O)N(C)C[C@@H]1OCCCC[C@H](C)Oc2ccc(NS(=O)(=O)c3ccc(Cl)cc3)cc2C(=O)N([C@@H](C)CO)C[C@@H]1C`, “inactive”.
With `CO[C@H]1CN(C)C(=O)c2cc(NS(=O)(=O)c3cn(C)cn3)ccc2OC[C@@H](C)N(Cc2cccc(F)c2)C[C@@H]1C`, the growth inhibition call was “inactive”.
As for `C[C@H](CO)N1C[C@H](C)[C@H](CN(C)C(=O)C2CCCCC2)OCCCC[C@H](C)Oc2ccc(NS(=O)(=O)c3ccc(Cl)cc3)cc2C1=O`, the growth inhibition call is “inactive”.
As for `O=C(C[C@H]1NCCNC1=O)Nc1ccccc1`, the entry is “inactive”.

For the origin of these results see the antibiotic and cytotoxicity screens of Wong et al. (2023).
